Assay results taken from patent US20260055169A1 (PARAGON THERAPEUTICS, published 2026).
Numbering of substitutions follows the chain as printed. Numbers in names are those of the source.

B1: Fc-VHH 9-5 fusion (SEQ ID NO: 213) (Fc fusion)
chain: [letters of human IgG1 Fc left out]GGGSEVQLVESGGGLVQPGGSLRLSCAASGFTFGSFGMSWVRQAPGKGLEWVSAIDSGGADTRYAESVKGRFTISRDNSKNTLYLQMNSLRAEDTAVYYCTIGRSASRGGQGTTVTVSS
B2: Fc-VHH 9-7 fusion (SEQ ID NO: 215) (Fc fusion)
chain: [letters of human IgG1 Fc left out]GGGSEVQLVESGGGLVQPGGSLRLSCAASGFTFGSFGMSWFRQAPGKEREFVSAIDSGGADTRYAESVKGRFTISRDNSKNTLYLQMNSLRAEDTAVYYCTIGRSASRGGQGTTVTVSS
B3: Fc-VHH 9-6 fusion (SEQ ID NO: 214) (Fc fusion)
chain: [letters of human IgG1 Fc left out]GGGSEVQLVESGGGLVQPGGSLRLSCAASGFTFGSFGMSWFRQAPGKEREFVSAIDSGGADTRYAESVKGRFTISRDNSKNTLYLQMNSLRAEDTAVYYCTIGRSASRWGQGTTVTVSS
B4: Fc-VHH 9-4 fusion (SEQ ID NO: 212) (Fc fusion)
chain: [letters of human IgG1 Fc left out]GGGSEVQLVESGGGLVQPGGSLRLSCAASGFTFGSFGMSWVRQAPGKGLEWVSAIDSGGADTRYAESVKGRFTISRDNSKNTLYLQMNSLRAEDTAVYYCTIGRSASRWGQGTTVTVSS
B5: VHH 1 - G4S - wild-type IgG1 Fc fusion (VHH-Fc fusion, SEQ ID NO: 5) (Fc fusion)
chain: QVQLVESGGGLVQPGGSLRLSCAASGFTFGQFGMSWVRQAPAKGPERVSAISSDGSGTIYADSVKGRFTISRDNAKNTLYLQMNSLKPEDTAVYYCTIGSSTTPSGPGQGTQVTVSSGGGGS[letters of human IgG1 Fc left out]
notes: also called VHH-1 Fc fusion
B6: VHH 6 - G4S - wild-type IgG1 Fc fusion (VHH-Fc fusion, SEQ ID NO: 147) (Fc fusion)
chain: QVQLVESGGGLVQPGGSLRLSCAASGFTFGSFGMSWVRQAPGKGPEWVSAIDSGGADTRYAESVKGRFTISRDNAKKTLYLQMNSLKPEDTAVYYCTIGQSTSRGSQGTQVTVSSGGGGS[letters of human IgG1 Fc left out]
B7: VHH 4 - G4S - wild-type IgG1 Fc fusion (VHH-Fc fusion, SEQ ID NO: 145) (Fc fusion)
chain: B6 chain with V5Q, K77S, Q100R, T102S
B8: VHH 12 - G4S - wild-type IgG1 Fc fusion (VHH-Fc fusion, SEQ ID NO: 153) (Fc fusion)
chain: B6 chain with A56G, A61S, E62D, T69A, V93A, Q100R
B9: VHH 3 - G4S - wild-type IgG1 Fc fusion (VHH-Fc fusion, SEQ ID NO: 144) (Fc fusion)
chain: B6 chain with Q1E
B10: VHH 2 - G4S - wild-type IgG1 Fc fusion (VHH-Fc fusion, SEQ ID NO: 143) (Fc fusion)
chain: B6 chain with S31R, Q100R
B11: VHH 16-Fc fusion (SEQ ID NO: 157) (Fc fusion)
chain: B6 chain with Q1E, S85N, V93M, Q100R
notes: Llama VHH-G4S-wild-type IgG1 Fc
B12: VHH 15-Fc fusion (SEQ ID NO: 156) (Fc fusion)
chain: B6 chain with V5Q, R19T, G54S, E62D, Q100R
notes: as for B11
B13: VHH 8 - G4S - wild-type IgG1 Fc fusion (VHH-Fc fusion, SEQ ID NO: 149) (Fc fusion)
chain: B6 chain with Q1E, G54S, Q100R, G105R, S106N, S114A
B14: VHH 11 - G4S - wild-type IgG1 Fc fusion (VHH-Fc fusion, SEQ ID NO: 152) (Fc fusion)
chain: B6 chain with S63T, A75L, Q100R
B15: VHH 19-Fc fusion (SEQ ID NO: 160) (Fc fusion)
chain: B6 chain with A56G, D57V, R59L, P88S
notes: as for B11
B16: VHH 7 - G4S - wild-type IgG1 Fc fusion (VHH-Fc fusion, SEQ ID NO: 148) (Fc fusion)
chain: B6 chain with Q1E, P14S, S53G
B17: VHH 22-Fc fusion (SEQ ID NO: 163) (Fc fusion)
chain: B6 chain with P14A, A56V
notes: as for B11
B18: VHH 20-Fc fusion (SEQ ID NO: 161) (Fc fusion)
chain: B6 chain with S53G, Q100G
notes: as for B11
B19: VHH 18-Fc fusion (SEQ ID NO: 159) (Fc fusion)
chain: B6 chain with A56T, V64I
notes: as for B11
B20: VHH 17-Fc fusion (SEQ ID NO: 158) (Fc fusion)
chain: B6 chain with V5Q, G16D, K43R, G44E, S85T, Q100R
notes: as for B11
B21: VHH 9 - G4S - wild-type IgG1 Fc fusion (VHH-Fc fusion, SEQ ID NO: 150) (Fc fusion)
chain: B6 chain with Q1E, Q100R
B22: VHH 14-Fc fusion (SEQ ID NO: 155) (Fc fusion)
chain: B6 chain with A56G, Q100R, G105V, S106G
notes: as for B11
B23: VHH 5 - G4S - wild-type IgG1 Fc fusion (VHH-Fc fusion, SEQ ID NO: 146) (Fc fusion)
chain: B6 chain with Q1E, A56T, V64I
B24: Fc-VHH 1-3 fusion (SEQ ID NO: 37) (Fc fusion)
chain: [letters of human IgG1 Fc left out]GGGSQVQLVESGGGLVQPGGSLRLSCAASGFTFGQFGMSWVRQAPAKGPERVSAISSSGSGTIYADSVKGRFTISRDNAKNTLYLQMNSLKPEDTAVYYCTIGSSTTPSGPGQGTQVTVSS
B25: Fc-VHH 1-9 fusion (SEQ ID NO: 43) (Fc fusion)
chain: [letters of human IgG1 Fc left out]GGGSEVQLVESGGGLVQPGGSLRLSCAASGFTFGQFGMSWFRQAPGKEREFVSAISSDGSGTIYADSVKGRFTISRDNSKNTLYLQMNSLRAEDTAVYYCTIGSSTTPSGWGQGTTVTVSS
B26: Fc-VHH 1-4 fusion (SEQ ID NO: 38) (Fc fusion)
chain: [letters of human IgG1 Fc left out]GGGSQVQLVESGGGLVQPGGSLRLSCAASGFTFGQFGMSWVRQAPAKGPERVSAISSGGSGTIYADSVKGRFTISRDNAKNTLYLQMNSLKPEDTAVYYCTIGSSTTPSGPGQGTQVTVSS
B27: Fc-VHH 1-7 fusion (SEQ ID NO: 41) (Fc fusion)
chain: [letters of human IgG1 Fc left out]GGGSEVQLVESGGGLVQPGGSLRLSCAASGFTFGQFGMSWVRQAPGKGLEWVSAISSDGSGTIYADSVKGRFTISRDNSKNTLYLQMNSLRAEDTAVYYCTIGSSTTPSGWGQGTTVTVSS

Assays:
[1] = target: T1, Recombinant human serum albumin (human, UniProt P02768); assay: SPR, Fc-VHH captured on anti-human Fc, human albumin as analyte, pH 6.0
T1 construct: Analyte in SPR, 0-500 nM

[2] = target: T2, Recombinant cynomolgus serum albumin (cynomolgus, UniProt A2V9Z4 25-608); assay: SPR Biacore 8K, VHH-Fc captured by anti-human Fc, albumin injected, pH 6.0, 25 C
T2 construct: Analyte in SPR

[3] = target: T3, Recombinant human serum albumin (human, UniProt P02768); assay: as above
T3 construct: Analyte in SPR

[4] = target: T2, Recombinant cynomolgus serum albumin; assay: SPR Biacore 8K, VHH-Fc captured by anti-human Fc, albumin injected, pH 7.4, 25 C
T2 sequence (A2V9Z4 25-608 limits assumed): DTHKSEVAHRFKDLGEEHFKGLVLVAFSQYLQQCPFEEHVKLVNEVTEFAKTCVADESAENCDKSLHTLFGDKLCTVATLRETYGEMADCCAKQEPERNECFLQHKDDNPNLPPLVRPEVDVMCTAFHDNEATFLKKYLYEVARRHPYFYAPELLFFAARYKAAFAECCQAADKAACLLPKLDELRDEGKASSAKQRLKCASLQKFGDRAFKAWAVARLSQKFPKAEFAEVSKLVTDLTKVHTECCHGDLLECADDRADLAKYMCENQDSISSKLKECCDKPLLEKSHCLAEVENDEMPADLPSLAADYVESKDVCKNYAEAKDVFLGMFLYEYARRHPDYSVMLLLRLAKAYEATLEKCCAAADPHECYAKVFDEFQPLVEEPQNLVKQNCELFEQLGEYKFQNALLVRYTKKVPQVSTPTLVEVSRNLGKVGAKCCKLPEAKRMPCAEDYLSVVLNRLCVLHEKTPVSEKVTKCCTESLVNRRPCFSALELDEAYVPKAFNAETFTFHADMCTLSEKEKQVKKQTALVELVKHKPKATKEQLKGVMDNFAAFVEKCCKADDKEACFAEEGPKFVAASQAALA

[5] = target: T3, Recombinant human serum albumin; assay: as above
[6] = target: T4, Recombinant mouse serum albumin (mouse, UniProt P07724 25-608); assay: SPR, Fc fusion captured on anti-human Fc, mouse albumin as analyte, pH 6.0
T4 construct: Analyte in SPR, 0-500 nM
T4 sequence (P07724 25-608 limits assumed): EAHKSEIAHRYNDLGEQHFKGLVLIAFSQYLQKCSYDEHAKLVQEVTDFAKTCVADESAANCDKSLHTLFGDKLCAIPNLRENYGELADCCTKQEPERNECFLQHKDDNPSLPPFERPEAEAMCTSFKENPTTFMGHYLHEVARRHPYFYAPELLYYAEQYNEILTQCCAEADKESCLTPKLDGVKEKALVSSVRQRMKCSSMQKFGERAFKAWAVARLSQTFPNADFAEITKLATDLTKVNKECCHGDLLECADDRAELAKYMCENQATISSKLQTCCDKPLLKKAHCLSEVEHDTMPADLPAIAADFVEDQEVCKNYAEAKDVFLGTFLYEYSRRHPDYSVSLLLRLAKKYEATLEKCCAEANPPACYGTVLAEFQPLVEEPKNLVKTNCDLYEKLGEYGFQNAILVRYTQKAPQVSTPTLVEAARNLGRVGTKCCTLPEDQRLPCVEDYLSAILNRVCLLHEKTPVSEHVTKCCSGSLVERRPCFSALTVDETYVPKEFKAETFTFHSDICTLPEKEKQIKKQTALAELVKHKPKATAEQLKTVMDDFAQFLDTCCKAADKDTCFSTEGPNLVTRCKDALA

| Binder | binding result [1] | Kd [2] | koff [2] | kon [2] | Kd [3] | koff [3] | kon [3] | Kd [4] | Kd [5] | Kd [6] | koff [6] | kon [6] |
| --- | --- | --- | --- | --- | --- | --- | --- | --- | --- | --- | --- | --- |
| B1 | no binding (tested: 500 nM) |  |  |  |  |  |  |  |  |  |  |  |
| B2 | no binding (tested: 500 nM) |  |  |  |  |  |  |  |  |  |  |  |
| B3 | no binding (tested: 500 nM) |  |  |  |  |  |  |  |  |  |  |  |
| B4 | no binding (tested: 500 nM) |  |  |  |  |  |  |  |  |  |  |  |
| B5 |  | 0.0366 µM | 0.00447 s⁻¹ | 122000 M⁻¹ s⁻¹ | 0.0239 µM | 0.00481 s⁻¹ | 201000 M⁻¹ s⁻¹ | 0.0441 µM | 0.0447 µM |  |  |  |
| B6 |  | 0.0267 µM | 0.00219 s⁻¹ | 82100 M⁻¹ s⁻¹ | 0.0118 µM | 0.00125 s⁻¹ | 106000 M⁻¹ s⁻¹ | 0.0539 µM | 0.0307 µM |  |  |  |
| B7 |  | 0.0518 µM | 0.00977 s⁻¹ | 189000 M⁻¹ s⁻¹ | 0.0197 µM | 0.00334 s⁻¹ | 170000 M⁻¹ s⁻¹ | 0.107 µM | 0.0563 µM |  |  |  |
| B8 |  | 0.0568 µM | 0.00931 s⁻¹ | 164000 M⁻¹ s⁻¹ | 0.0221 µM | 0.00337 s⁻¹ | 152000 M⁻¹ s⁻¹ | 0.116 µM | 0.0607 µM |  |  |  |
| B9 |  | 0.0244 µM | 0.00211 s⁻¹ | 86200 M⁻¹ s⁻¹ | 0.0105 µM | 0.00117 s⁻¹ | 112000 M⁻¹ s⁻¹ | 0.053 µM | 0.0281 µM |  |  |  |
| B10 |  | 0.0435 µM | 0.004 s⁻¹ | 92000 M⁻¹ s⁻¹ | 0.0188 µM | 0.00222 s⁻¹ | 118000 M⁻¹ s⁻¹ | 0.0915 µM | 0.0516 µM |  |  |  |
| B11 |  |  |  |  |  |  |  |  |  | 0.168 µM | 0.0276 s⁻¹ | 164000 M⁻¹ s⁻¹ |
| B12 |  |  |  |  |  |  |  |  |  | 0.265 µM | 0.0233 s⁻¹ | 87800 M⁻¹ s⁻¹ |
| B13 |  | 0.0494 µM | 0.00393 s⁻¹ | 79700 M⁻¹ s⁻¹ | 0.0254 µM | 0.00214 s⁻¹ | 84100 M⁻¹ s⁻¹ | 0.0811 µM | 0.0425 µM |  |  |  |
| B14 |  | 0.0488 µM | 0.00678 s⁻¹ | 139000 M⁻¹ s⁻¹ | 0.0198 µM | 0.00293 s⁻¹ | 148000 M⁻¹ s⁻¹ | 0.099 µM | 0.0536 µM |  |  |  |
| B15 |  |  |  |  |  |  |  |  |  | 0.138 µM | 0.0186 s⁻¹ | 135000 M⁻¹ s⁻¹ |
| B16 |  | 0.0337 µM | 0.00213 s⁻¹ | 63300 M⁻¹ s⁻¹ | 0.0178 µM | 0.00118 s⁻¹ | 66200 M⁻¹ s⁻¹ | 0.0451 µM | 0.0239 µM |  |  |  |
| B17 |  |  |  |  |  |  |  |  |  | 0.408 µM | 0.0377 s⁻¹ | 92500 M⁻¹ s⁻¹ |
| B18 |  |  |  |  |  |  |  |  |  | 0.199 µM | 0.0309 s⁻¹ | 155000 M⁻¹ s⁻¹ |
| B19 |  |  |  |  |  |  |  |  |  | 0.00748 µM | 0.000905 s⁻¹ | 121000 M⁻¹ s⁻¹ |
| B20 |  |  |  |  |  |  |  |  |  | 0.16 µM | 0.0242 s⁻¹ | 151000 M⁻¹ s⁻¹ |
| B21 |  | 0.047 µM | 0.00611 s⁻¹ | 130000 M⁻¹ s⁻¹ | 0.019 µM | 0.00289 s⁻¹ | 153000 M⁻¹ s⁻¹ | 0.0924 µM | 0.0501 µM |  |  |  |
| B22 |  |  |  |  |  |  |  |  |  | 0.149 µM | 0.0162 s⁻¹ | 109000 M⁻¹ s⁻¹ |
| B23 |  | 0.0195 µM | 0.00162 s⁻¹ | 83400 M⁻¹ s⁻¹ | 0.00797 µM | 0.000873 s⁻¹ | 109000 M⁻¹ s⁻¹ | 0.0404 µM | 0.0234 µM |  |  |  |
| B24 | no binding (tested: 500 nM) |  |  |  |  |  |  |  |  |  |  |  |
| B25 | no binding (tested: 500 nM) |  |  |  |  |  |  |  |  |  |  |  |
| B26 | no binding (tested: 500 nM) |  |  |  |  |  |  |  |  |  |  |  |
| B27 | no binding (tested: 500 nM) |  |  |  |  |  |  |  |  |  |  |  |
